# Results as given in article PMC4336329 (PLoS ONE, 2015).
# Screen size: about 310,000 compounds; about 14,000 (4.5%) showed an effect of 50% or more. Effects have a minus sign here. This is one part of the list.
# Molecular target: human ether-à-go-go-related gene (hERG) potassium channel (human, UniProt Q12809)
# Test: primary screen, population patch clamp on CHO cells stably expressing hERG
# 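Also: peak tail current of the secondary pulse compared with the same well before compound.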
# Sequence of human ether-à-go-go-related gene (hERG) potassium channel (Q12809 whole entry, looked up): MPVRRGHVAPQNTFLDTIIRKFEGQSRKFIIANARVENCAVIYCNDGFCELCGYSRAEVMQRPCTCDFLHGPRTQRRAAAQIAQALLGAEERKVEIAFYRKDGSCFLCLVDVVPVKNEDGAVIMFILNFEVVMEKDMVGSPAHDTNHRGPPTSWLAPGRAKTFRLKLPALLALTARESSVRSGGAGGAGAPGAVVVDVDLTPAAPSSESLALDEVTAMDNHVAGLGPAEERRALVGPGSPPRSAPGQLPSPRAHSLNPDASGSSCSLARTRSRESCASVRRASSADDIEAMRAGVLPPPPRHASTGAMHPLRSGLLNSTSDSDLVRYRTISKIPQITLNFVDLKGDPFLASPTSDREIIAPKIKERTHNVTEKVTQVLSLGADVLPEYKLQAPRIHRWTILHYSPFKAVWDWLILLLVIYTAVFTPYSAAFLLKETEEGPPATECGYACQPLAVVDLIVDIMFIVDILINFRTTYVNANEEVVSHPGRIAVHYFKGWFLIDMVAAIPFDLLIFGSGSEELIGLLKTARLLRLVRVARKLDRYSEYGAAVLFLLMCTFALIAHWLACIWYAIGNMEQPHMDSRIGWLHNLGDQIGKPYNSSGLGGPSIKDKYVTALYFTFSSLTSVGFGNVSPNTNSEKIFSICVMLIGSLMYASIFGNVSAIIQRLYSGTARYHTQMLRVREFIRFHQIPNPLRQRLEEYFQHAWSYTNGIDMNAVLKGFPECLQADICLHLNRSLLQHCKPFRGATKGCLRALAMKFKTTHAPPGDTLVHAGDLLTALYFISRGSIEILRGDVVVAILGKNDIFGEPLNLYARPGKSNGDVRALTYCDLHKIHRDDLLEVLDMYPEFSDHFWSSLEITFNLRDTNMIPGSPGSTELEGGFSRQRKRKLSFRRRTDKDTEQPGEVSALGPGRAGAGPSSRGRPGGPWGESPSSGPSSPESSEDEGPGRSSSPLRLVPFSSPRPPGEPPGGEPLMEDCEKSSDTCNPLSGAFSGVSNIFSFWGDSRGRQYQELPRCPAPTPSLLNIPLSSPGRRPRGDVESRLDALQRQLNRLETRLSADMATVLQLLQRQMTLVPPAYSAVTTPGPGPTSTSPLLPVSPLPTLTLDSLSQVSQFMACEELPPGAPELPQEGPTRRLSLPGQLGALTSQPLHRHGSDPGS
row,SMILES,"hERG current change (%, negative = inhibition) at 10uM [%]"
1,CCOC(=O)N1CCC(NC(=O)C2CCCN(C(=O)N3CCOc4ccccc43)C2)CC1 (centres unmarked),3.21
2,CCOC(=O)c1c(NC(=O)COC(=O)Cc2c[nH]c3ccccc23)sc(C(=O)N(C)C)c1C,-62.5
3,Cc1ccc(NC(=O)CN2C(=O)NC(C)(C3CC3)C2=O)c([N+](=O)[O-])c1 (centres unmarked),-13.1
4,CCC(C)NC(=O)Nc1ccccc1C (centres unmarked),20.4
5,Cc1ccc(CN2C(=O)CCC2C(=O)NCCN(CC(C)C)CC(C)C)cc1 (centres unmarked),-13.4
6,CC(C)CC(=O)NC(Oc1ccc(Cl)cc1)C(Cl)(Cl)Cl (centres unmarked),1.66
7,C/C(=N\NC(=O)c1c(Br)c(C)nn1C)c1cccc(NC(=O)C2CCC2)c1,-19.4
8,CNc1nc(-c2ccc3c(c2)CCN3C(=O)c2cccc(F)c2)cs1,-7.81
9,CCOCCCN1C(=O)CN(C2CCCCC2)C(=O)C1c1ccc(OC)c(OC)c1 (centres unmarked),5.23
10,CCn1c(=O)cc(SCC(=O)NCc2cccnc2)c2ccccc21,-5.05
11,COc1cc(C)c(COc2ncnc3ccccc23)cc1OC,0.808
12,O=C1[C@@H]2C(c3cccnc3)=NO[C@@H]2C(=O)N1c1ccc(Cl)cc1Cl,10.2
13,CC1=C/C(=C/N(C)C)C(=O)O1,27.4
14,CC1(C)Cc2c(sc(NC(=O)C(=O)NCCCN3CCOCC3)c2C(N)=O)CO1,7.55
15,O=C(c1ccccc1)c1nccn1-c1ccc(Cl)nn1,2.26
16,O=C(Nc1ccc(Cl)c(Cl)c1)Nc1ccccc1O,3.98
17,CCN(CC)C(=O)CN1C(=O)C(=O)c2ccccc21,21.3
18,O=C(/C=C/c1ccc2c(c1)OCCO2)c1ccc(O)cc1,0.62
19,CC(C)C(=O)Nc1nc2cc3c(cc2s1)OCCO3,-4.59
20,CCOC(=O)CC1C(=O)NCCN1C(=O)c1cc2c(=O)n3cccc(C)c3nc2s1 (centres unmarked),8.8

row,SMILES,"hERG current change (%, negative = inhibition) at 10uM [%]"
1,CCNc1nnc(-c2ccncc2)s1,7.29
2,Cc1cccc(NC(=O)c2nc[nH]c2C(=O)Nc2cccc(C)c2)c1,25.1
3,COc1cccc(CNC(=O)C(C)n2nc(C)n3c(cc4occc43)c2=O)c1 (centres unmarked),7.17
4,COC(=O)c1ccc(C(=O)OC)c(NC(=O)COC(=O)CCOc2ccc(C)cc2)c1,21.2
5,CCc1ccc(NC(=O)N(C2CCCCC2)C(C)c2cccnc2)cc1 (centres unmarked),-3.41
6,CC1CN(S(=O)(=O)c2ccc(NC(=O)CCCN3C(=O)c4ccccc4C3=O)cc2)CC(C)O1 (centres unmarked),-3.02
7,CC1CC(C)CN(C(=O)CSc2nc(N)cc(=O)[nH]2)C1 (centres unmarked),-4.45
8,Cl.Cn1nnc(C(O)CNCc2ccc(Cl)cc2)n1 (centres unmarked),4.36
9,Cc1ccc(-c2nnc(OCc3cccnc3)c3ccccc23)cc1,-75.7
10,CCCCn1c(N)c(N(CC(C)C)C(=O)CSc2n[nH]c(-c3ccc(C)cc3)n2)c(=O)[nH]c1=O,0.238
11,CCCCCCC(=O)c1c(O)n(-c2ccccc2OC)c(=O)[nH]c1=O,12.2
12,Cc1ccc(S(=O)(=O)NC2CC(C)(C)NC(C)(C)C2)cc1C,5.89
13,Cc1ccc(C(c2nnnn2C2CCCCC2)N(C)C2CCCCC2)cc1 (centres unmarked),-9.47
14,CC(=O)Nc1nnc(-c2ccc(Cl)s2)o1,-1.87
15,CCCCC(=O)Nc1nnnn1CCC,1.53
16,O=C(NC(=S)N1CCCCC1)c1csc([N+](=O)[O-])c1,11.5
17,O=C(COc1ccc([N+](=O)[O-])cc1)NNC(=O)Nc1ccc([N+](=O)[O-])cc1,-9.92
18,Cc1csc(NC(=O)C2CCCN2C(=O)Oc2ccccc2)n1 (centres unmarked),-19.8
19,O=C1/C(=C\c2cc(Cl)c(O)c(Cl)c2)SC(=S)N1Cc1ccccc1,15.9
20,Cc1nnc(N=c2ssnc2Cl)o1,21.1

row,SMILES,"hERG current change (%, negative = inhibition) at 10uM [%]"
1,Nc1sc2c(c1C(=O)NCCc1ccccc1)CCC2,1.56
2,Cc1c(Br)cc(C(=O)NC2CCCCC2)c(C)c1C,20.5
3,Cn1c(CSCc2ccccc2Cl)n[nH]c1=S,7.1
4,CCCCCCCC/C=C\CCCCCCCC(=O)O,11.6
5,CCc1ccc(N2CC(C(=O)Nc3nnc(CC)s3)CC2=O)cc1 (centres unmarked),-17.8
6,CCOCCCNC(=O)C(c1ccc(C)cc1)N(Cc1ccc2c(c1)OCO2)C(=O)CNC(C)=O (centres unmarked),7.79
7,Cc1nn(Cc2ccc(F)cc2)c2sc(C(=O)Nc3ccc(N4CCOCC4)cc3N3CCOCC3)cc12,-21.6
8,O=C(CSc1nnc(-c2cccs2)n1-c1ccccc1)Nc1ccccc1,-44.3
9,S=C(Nc1ccc(Br)cc1)N1CCN(C2CCCCC2)CC1,-17.3
10,Cc1nc(N/C(N)=N/S(=O)(=O)c2ccc([N+](=O)[O-])cc2)nc2ccccc12,-46.6
11,CCCCN(CC)Cc1ccc(CNC(=O)Nc2ccc(OC)cc2OC)o1,-3.35
12,CN(CCc1ccccc1)C1CCCN(S(=O)(=O)CC(F)(F)F)C1 (centres unmarked),-3.61
13,CN(C)CP(=O)(O)CN(C)C=O,4.75
14,COc1ccc(Cc2nnc(NC(=O)c3ccco3)s2)cc1OC,5.42
15,Cc1cccc(N2CCN(C(=O)COc3cccc4c3OC(C)(C)C4)CC2)c1C,-2.16
16,CNC(=O)c1nc(C)c(C2(C)CC(c3cccc([N+](=O)[O-])c3)=NO2)s1 (centres unmarked),-23.9
17,COc1ccc(C(=O)NNC(=O)c2cc3cc([N+](=O)[O-])ccc3oc2=O)cc1OC,3.9
18,O=C(CCC(=O)c1ccc(Br)cc1)Nc1ccc(F)cc1,23.7
19,CCN1/C(=C\C(C)=O)Sc2ccc(OC)cc21,13.9
